Hit rate of the full screen: of about 310,000 compounds, about 14,000 (4.5%) showed an effect of 50% or more. The effect is printed as a negative number. The list shows a part of the results.
Target: human ether-à-go-go-related gene (hERG) potassium channel (human, UniProt Q12809)
Test: primary screen, population patch clamp on CHO cells stably expressing hERG
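Also: peak tail current of the secondary pulse compared with the same well before compound.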

Chain of human ether-à-go-go-related gene (hERG) potassium channel (Q12809 whole entry, looked up): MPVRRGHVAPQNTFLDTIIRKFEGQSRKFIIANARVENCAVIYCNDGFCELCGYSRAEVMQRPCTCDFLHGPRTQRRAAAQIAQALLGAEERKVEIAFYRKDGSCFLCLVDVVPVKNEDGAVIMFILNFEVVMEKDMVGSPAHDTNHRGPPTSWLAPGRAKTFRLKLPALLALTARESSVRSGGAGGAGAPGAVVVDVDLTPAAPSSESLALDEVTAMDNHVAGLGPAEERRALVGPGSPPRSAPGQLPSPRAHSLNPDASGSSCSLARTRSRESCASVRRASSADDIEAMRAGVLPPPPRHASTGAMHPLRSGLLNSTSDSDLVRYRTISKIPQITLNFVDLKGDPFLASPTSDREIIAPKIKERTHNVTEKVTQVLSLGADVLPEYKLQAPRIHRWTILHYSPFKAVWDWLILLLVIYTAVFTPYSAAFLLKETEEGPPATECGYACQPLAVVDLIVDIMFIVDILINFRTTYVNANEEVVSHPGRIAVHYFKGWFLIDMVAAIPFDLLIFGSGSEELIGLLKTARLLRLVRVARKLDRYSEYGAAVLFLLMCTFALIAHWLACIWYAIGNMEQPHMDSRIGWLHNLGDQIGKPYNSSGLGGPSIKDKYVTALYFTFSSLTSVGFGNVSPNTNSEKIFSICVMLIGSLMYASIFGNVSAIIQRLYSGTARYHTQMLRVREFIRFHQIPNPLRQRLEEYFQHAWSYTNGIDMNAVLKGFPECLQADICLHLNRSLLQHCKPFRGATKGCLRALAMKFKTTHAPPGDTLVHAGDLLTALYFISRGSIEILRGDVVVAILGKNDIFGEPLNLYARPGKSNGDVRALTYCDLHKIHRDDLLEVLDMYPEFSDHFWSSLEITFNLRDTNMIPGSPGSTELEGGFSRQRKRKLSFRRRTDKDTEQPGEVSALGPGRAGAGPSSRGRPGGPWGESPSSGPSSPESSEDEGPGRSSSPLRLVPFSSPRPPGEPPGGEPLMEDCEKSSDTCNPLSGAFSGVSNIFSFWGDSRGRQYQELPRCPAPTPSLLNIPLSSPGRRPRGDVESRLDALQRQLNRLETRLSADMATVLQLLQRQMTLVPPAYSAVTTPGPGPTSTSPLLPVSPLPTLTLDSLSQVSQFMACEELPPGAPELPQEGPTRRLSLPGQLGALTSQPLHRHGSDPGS

Going from `CCOc1ccc(-n2nnnc2SCC(=O)NNC(=O)c2ccco2)cc1` to `Cc1ccc(C)c(NC(=O)c2ccc(OC(=O)c3ccco3)cc2)c1`, the “hERG current change (%, negative = inhibition) at 10uM” value rises from -0.29% to 0.438%.

Going from `O=C1CSC(c2ccccc2F)N1c1cc(Cl)ccc1O` (stereo not shown) to `Cc1ccccc1NC(=O)c1ccccc1NC(=O)c1ccccc1F`, the “hERG current change (%, negative = inhibition) at 10uM” value rises from -4.06% to 11.3%.

First: NC(=O)N/N=C/c1c(O)ccc2oc3c(c12)CCCC3
Second: C/C(=N\NC(=O)c1cccnc1)c1cc2ccccc2o1
The “hERG current change (%, negative = inhibition) at 10uM” value of the first is higher: 13.1% for the first, -1.01% for the second.

Going from `CCNS(=O)(=O)c1ccc(CCC(=O)NCc2ccc(C)cc2)cc1` to `N#CCCNS(=O)(=O)c1ccc(C(=O)OCCCOC(=O)c2ccc(S(=O)(=O)NCCC#N)cc2)cc1`, the “hERG current change (%, negative = inhibition) at 10uM” value rises from -53.1% to 5.47%.

First: CCC(CC)NC(=O)c1cc(OC)c(OC)c(OC)c1
Second: COc1ccc(-c2nc(CSCC(=O)N3CCN(c4cccc(C)c4)C(C)C3)c(C)o2)cc1OC (stereo not shown)
The “hERG current change (%, negative = inhibition) at 10uM” value of the first is higher: 15.9% for the first, -32.6% for the second.

Compared with `Br.CCCCCCCCCCn1ccc(=N)cc1`, `CC(C)C[C@@H](CO)N1CCN(CCc2ccccc2)CCC1=O` is higher in “hERG current change (%, negative = inhibition) at 10uM” value: -72.9% for the first, -23% for the second.

Compared with `O=C(COC(=O)/C=C/c1ccc(C(F)(F)F)cc1)NCc1ccco1`, `COc1cccc(/C=C/C(=O)NNC(=O)c2ccncc2)c1` is lower in “hERG current change (%, negative = inhibition) at 10uM” value: 23.1% for the first, -20.5% for the second.

Going from `CCC(C)NC(=O)C1CCCN(c2nc(C)cc(OC)n2)C1` (stereo not shown) to `COCC(C)n1c(C)cc(C(=O)COC(=O)c2nc3nc(C)cc(C)n3n2)c1C` (stereo not shown), the “hERG current change (%, negative = inhibition) at 10uM” value rises from 7.02% to 8.12%.

Compared with `S=c1[nH]nc(-c2ccccc2Cl)n1CC1CCCO1` (stereo not shown), `C=C1CCN([C@H](C(=O)O)C(C)C)S(=O)(=O)c2ccccc21` is higher in “hERG current change (%, negative = inhibition) at 10uM” value: -9.96% for the first, 6.38% for the second.

Compared with `CCOc1cc(C2CC(=O)NC3=C2C(=O)C(C(=O)OC)C(C)C3)cc(Br)c1O` (stereo not shown), `Cc1c(O)ccc(C(=O)CN2CC(C)OC(C)C2)c1O` (stereo not shown) is higher in “hERG current change (%, negative = inhibition) at 10uM” value: 1.19% for the first, 18.9% for the second.

Compared with `O=C(Nc1ccc(O)cc1)c1ccc2c(c1)C(=O)N(Cc1ccco1)C2=O`, `O=C(c1ccc(COc2ccccc2)o1)N1CCN(S(=O)(=O)c2ccccc2Cl)CC1` is lower in “hERG current change (%, negative = inhibition) at 10uM” value: -42.8% for the first, -46.3% for the second.

First: O=C(CSc1nnc(CNc2ccc(F)cc2)n1Cc1ccccc1)NCc1ccccc1
Second: S=C(NCc1cccs1)Nc1cc(Cl)cc(Cl)c1
The “hERG current change (%, negative = inhibition) at 10uM” value of the first is lower: 5.28% for the first, 13% for the second.

With `COCC(=O)Nc1ccccc1C(=O)NC(C)C` the “hERG current change (%, negative = inhibition) at 10uM” value was 12%.
